Measurements as given in paper PMC6919601, “Identification of Plasmodium dipeptidyl aminopeptidase allosteric inhibitors by high throughput screening” (PLoS ONE, 2019).
In all, about 110,000 compounds went through this assay and about 230 (0.21%) showed an effect of 50% or more. Some of the results follow.

What follows are molecules tested against DPAP1 (Plasmodium falciparum, UniProt Q8IIJ9) (assay: primary screen, percent inhibition; read by cleavage of a fluorogenic dipeptide substrate; higher = more effect of the substance).
Chain of DPAP1 (Q8IIJ9 whole entry, looked up): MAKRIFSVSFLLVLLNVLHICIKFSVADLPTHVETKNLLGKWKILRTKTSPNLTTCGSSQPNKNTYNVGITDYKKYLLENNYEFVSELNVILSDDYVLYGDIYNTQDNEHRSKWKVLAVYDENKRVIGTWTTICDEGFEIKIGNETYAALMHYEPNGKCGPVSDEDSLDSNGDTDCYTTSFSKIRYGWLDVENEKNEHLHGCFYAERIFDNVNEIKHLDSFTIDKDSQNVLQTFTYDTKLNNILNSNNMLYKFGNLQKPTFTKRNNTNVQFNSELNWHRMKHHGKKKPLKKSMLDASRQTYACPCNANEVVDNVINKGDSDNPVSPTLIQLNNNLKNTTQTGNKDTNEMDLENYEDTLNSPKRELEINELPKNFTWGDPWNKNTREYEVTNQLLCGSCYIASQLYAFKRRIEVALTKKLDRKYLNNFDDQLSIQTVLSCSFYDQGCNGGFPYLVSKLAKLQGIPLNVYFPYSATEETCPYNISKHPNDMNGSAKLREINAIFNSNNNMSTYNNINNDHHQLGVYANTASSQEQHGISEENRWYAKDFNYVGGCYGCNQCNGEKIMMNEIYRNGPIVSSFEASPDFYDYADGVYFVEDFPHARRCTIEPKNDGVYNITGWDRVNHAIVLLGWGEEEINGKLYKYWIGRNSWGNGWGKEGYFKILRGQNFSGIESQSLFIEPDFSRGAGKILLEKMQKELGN
Parameters: species or system P. falciparum D10 trophozoite lysates; single well
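Also: 30 min substrate incubation versus DMSO and 10 µM JCP410 controls.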

| Compound | % Inhibition @ 10 uM |
| --- | --- |
| O=C1c2ccccc2-c2c1ccc[n+]2[O-] | -5.35% |
| Cc1ccc2c(c1)-c1onc(C(=O)N3CCN(c4ccccn4)CC3)c1CO2 | 3.31% |
| COc1cc(C2C(C#N)=C(N)OC3=C2C(=O)CC(C)(C)C3)ccc1OCc1cccc(F)c1 (centres unmarked) | -7.64% |
| Cc1ccccc1C(=O)Nc1c(C(=O)N(CCN(C)C)Cc2ccco2)oc2ccccc12 | -2.35% |
| CC(=O)c1ccc(NC(=O)CCCC(=O)Nc2ccc(C(C)=O)cc2)cc1 | 0.983% |
| O=C(NCc1ccccc1)C(O)(c1ccccc1)c1ccccc1 | 2.6% |
| Cn1cccc1Cc1nnc(SCC(=O)NC2CCCC2)n1C | 0.809% |
| C=C(C)CN(CC)Cc1ccccc1O | -0.0494% |
| O=C(COCc1cc(-c2ccc3c(c2)OCO3)on1)Nc1cccnc1Cl | 8.8% |
| Nc1ccc(S(=O)(=O)Nc2ccc(Oc3ccccc3)cc2)cc1 | -2.03% |
| Cc1ccc(C)n1Cc1ccc(C(=O)O)cc1 | -2.26% |
| Cc1cc2nc3c(nc2cc1C)C1(C(=O)O)CCC3(C)C1(C)C (centres unmarked) | 0.83% |
| O=C1c2ccccc2C(=O)N1CCCOc1ccccc1[N+](=O)[O-] | 6.43% |
| COc1ccc(CNS(=O)(=O)c2ccc(-n3cccn3)cc2)cc1 | -6.67% |
| c1cc(CN2CCOCC2)ccc1CN1CCOCC1 | -0.0267% |
| Cc1nc(N2CCN(c3ncccn3)CC2)c2c3c(sc2n1)CCCC3 | -7.28% |
| O=C(NCCc1ccc(Cl)cc1)c1ccc(Cn2c(=O)[nH]c3ccsc3c2=O)cc1 | -3.27% |
| CCC1CCC(=O)N2CCc3c([nH]c4ccccc34)C12 (centres unmarked) | -8.58% |
| CN(Cc1ccccc1)C(=O)c1cc(-c2ccc(Cl)c(Cl)c2)on1 | -1.21% |
| C/C=C(\C)CN1CCCC(C(N)=O)C1 (centres unmarked) | 4.9% |
| Cc1ccc2cc(C)c(Nc3ccc(Cl)cc3)nc2c1 | -5.23% |
| CCOC(=O)N1CCN(c2ccc([N+](=O)[O-])cc2F)CC1 | 2.05% |
| CCSc1nc2c(c(=O)n1C)C1(CCCCC1)Cc1ccccc1-2 | -2.44% |
| CC1(C)CC2=Nc3nc(N)nc(O)c3C(c3ccc(F)cc3)C2=C(O)C1 (centres unmarked) | 2.31% |
| CNC(=O)N1c2ccccc2C=Cc2ccccc21 | -5.04% |
| Cc1cc2ncn(CCOc3ccc(Cl)cc3)c2cc1C | -4.07% |

| Compound | % Inhibition @ 10 uM |
| --- | --- |
| CS(=O)(=O)N(CC(=O)Nc1cc(C(F)(F)F)ccc1Cl)c1ccc(Br)cc1 | -2.29% |
| CC1=C(C(=O)OCc2ccc(C)cc2)C(c2ccc(Cl)cc2Cl)CC(=O)N1 (centres unmarked) | -4.81% |
| CC(=O)c1cc2cc(F)ccc2oc1=O | 1.02% |
| CC(C)Nc1oc(Cc2cccc3ccccc23)nc1C#N | -4.67% |
| CN(CCNC(=O)CN1N=C(c2ccccc2)CCC1=O)Cc1ccccc1 | 3.79% |
| O=C(NCCCc1ccccc1)c1cc(S(=O)(=O)N2CCCCC2)c[nH]1 | -4.07% |
| CCNS(=O)(=O)c1cccnc1N1CCN(CCO)CC1 | -3.92% |
| COc1ccc2ccccc2c1/C=C1/N=C(c2ccccc2F)OC1=O | 2.81% |
| CCCCn1c2ccccc2n2c(C(C)=O)c(-c3ccccc3)nc12 | 0.00773% |
| COc1ccccc1OCC(O)CN1C(=O)NC(C)(C)C1=O (centres unmarked) | 3.59% |
| CC(=O)N1c2ccccc2N=C2CC(C)(C)CC(O)=C2C1c1ccc(C#N)cc1 (centres unmarked) | 5.9% |
| CCOc1cccc2c1Oc1nc(-c3cc(Cl)ccc3O)nc(O)c1C2 | -2.84% |
| CCCCC1CCC(c2noc(-c3ccc([N+](=O)[O-])cc3)n2)CC1 (centres unmarked) | -1.96% |
| CC(C)c1ccc(N2C(=O)NC(=O)/C(=C/c3ccco3)C2=O)cc1 | -0.274% |
| COc1ccc(-n2cnc3cc(C(=O)NCCN4CCOCC4)ccc32)cc1 | -2.17% |
| CC1(C)Cc2ccccc2-c2nnc(-c3ccc4ccccc4n3)n21 | 1.48% |
| C=CCNC(=O)C(=O)Nc1ccc(Cl)c(Cl)c1 | 1.37% |
| CCCNC(=O)C1CCCN(Cc2nc(-c3ccc(Cl)cc3)oc2C)C1 (centres unmarked) | -1.05% |
| NS(=O)(=O)c1cc(C(=O)Nc2nc(-c3ccccc3)cs2)c(Cl)cc1Cl | 10.6% |
| COCC(=O)n1nc(-c2ccco2)nc1NCc1ccc(Cl)cc1 | -3.24% |
| CCN1CNC(=S)N(Cc2ccccc2)C1 | -0.169% |
| CCOC(=O)c1c(C=O)c2ccccc2n1CC | 1.63% |
| CCc1nonc1NC(=O)c1ccc(OCC(C)C)cc1 | -3.49% |
| O=C(NCc1ccccc1)/C(NC(=O)c1ccccc1)=C(/Sc1ccccn1)c1ccccc1 | -0.183% |
| CC(C)OCCCNC(=O)c1cn(C2CCCC2)c(=O)c2c1c1ccccc1n2C | 0.163% |
| Cc1nn(Cc2cccc3ccccc23)c(C)c1NC(=O)c1ccc(F)cc1 | -0.67% |

| Compound | % Inhibition @ 10 uM |
| --- | --- |
| Cc1ccc2nc(Cl)c(-n3nc(C)cc3C)nc2c1 | 6.83% |
| O=C(Nc1ccccc1)c1csc2c1CCCC2 | 0.13% |
| OC12OC34CCCCC3CC13CCCC2CC1CCCCC13O4 (centres unmarked) | -6.17% |
| CCCN(Cc1c(C)n(C)n(-c2ccccc2)c1=O)CC1CC1 | -1.5% |
| COc1ccc(CN(CCC2(Cc3ccccc3)CCOC(C)(C)C2)C(C)=O)cc1 (centres unmarked) | 14.2% |
| CN(C)c1nc2nonc2nc1N | 0.596% |
| CCOc1cc(C2C3=C(O)CC(C)(C)CC3=NC3=C2C(=O)CC(C)(C)C3)ccc1OCC(=O)O (centres unmarked) | -2.88% |
| CNC(=O)C1Cc2ccccc2CN1S(=O)(=O)c1cccs1 (centres unmarked) | 6.05% |
| Cc1cc2c(C)nc3c(Cl)cccc3c2o1 | 0.392% |
| CCOc1ccccc1NC(=O)c1ccc(Cl)c(Cl)c1 | 2.98% |
| N#Cc1ccc(Oc2ccc(NC(=O)c3ccc(Br)cc3)cc2)cc1 | -5.33% |
| O=C1CCCN1CCc1ccccc1 | 0.343% |
| CCCOC1(C(F)(F)F)NC(=O)N(Cc2ccccn2)C1=O (centres unmarked) | -3.33% |
| COc1ccc(-n2ncc3c(SCC(=O)Nc4nc(C(C)(C)C)cs4)ncnc32)cc1 | -3.08% |
| COc1cccc(CNc2nc3c(-c4ccc(C)cc4)nnn3c3ccccc23)c1 | 15.6% |
| Cc1c(CNCc2ccco2)c(C(=O)O)c(C)n1Cc1ccc(F)cc1 | -5.49% |
| CCCCC12CNCC(C)(CNC1)C2=O | -3.49% |
| CCN(CC)CCCNc1nc2cc(OC)c(OC)cc2c2nc(-c3cccnc3)nn12 | 2.6% |
| Nc1cc(O)nc(SCC(=O)Nc2nnc(-c3ccccc3)s2)n1 | 1.96% |
| CCc1ccc(/C=C(/C#N)c2nc(-c3ccc(Cl)cc3)cs2)cc1 | -3.04% |
| CSc1nc(-c2ccco2)nn1S(=O)(=O)c1ccc(C)cc1 | 2.32% |
| CCCCN(C)Cc1ccnc2ccccc12 | -0.446% |
| COc1ccc(C2CC(C(F)(F)F)n3ncc(C(=O)Nc4cc(Cl)ccc4O)c3N2)cc1 (centres unmarked) | -10.5% |
| CSCCCN(C)C1CCN(C)CC1 | -2.95% |
| O=C(c1sc2ccccc2c1Cl)N1CCc2ccccc21 | -0.342% |
| NC(=O)Cn1c(=O)n(Cc2ccc(C(=O)NCc3ccco3)cc2)c(=O)c2sccc21 | -7.85% |

| Compound | % Inhibition @ 10 uM |
| --- | --- |
| Cc1sc(NC(=O)c2ccccc2)c(C(=O)NC2CCCCC2)c1C | 16% |
| O=c1c(=O)n(Cc2cccc(C(F)(F)F)c2)ccn1Cc1ccccc1 | -4.11% |
| COc1cc(/C=C2/Sc3ccccc3C2=O)cc(Br)c1O | 2.7% |
| COc1ccc(-c2noc(CN(C(=O)c3c(OC)cccc3OC)C(C)C)n2)cc1 | -0.942% |
| CCN(CC)C(=O)C1CCCN(Cc2cc(OC)ccc2OC)C1 (centres unmarked) | -0.127% |
| CCN(CC)C(=O)c1sc2nc3c(cc2c1N)N1CCC3CC1 | 1.84% |
| CCC1CCc2nc3sc(C(=O)NC4CCCC4)c(N)c3cc2C1 (centres unmarked) | 1.68% |
| c1ccc(-c2nc(-c3ccco3)n3ccccc23)cc1 | 0.874% |
| COCc1cc(C)nc2sc(C(=O)Nc3cccc(C(F)(F)F)c3)c(N)c12 | 3.8% |
| Cc1cccc(C(=O)NCC2CCCO2)c1 (centres unmarked) | -7.02% |
| CCCNC(=O)CN(c1ccc(C)cc1C)S(C)(=O)=O | 12.8% |
| O=c1cc(CO)occ1OCc1ccccc1 | 3.83% |
| COc1ccc2oc(C)c(C(=O)c3ccccc3)c2c1 | -5% |
| O=C(CCn1c(=O)c2cccn2c2cccnc21)NC1CCCCCC1 | -5.43% |
| CC1CCN(c2ccc(NC(=O)c3cccs3)cc2)CC1 | 0.956% |
| COc1ccc(-c2cc(C(=O)NCc3ccccn3)c3cc(C(C)C)ccc3n2)cc1 | 1.16% |
| COC(=O)c1ccc(C2C3=C(O)CCCC3=Nc3nn(-c4ccccc4)c(O)c32)cc1 (centres unmarked) | 2.46% |
| O=C(Nc1ccc(NC(=O)c2cccnc2)cc1)c1ccc(NC(=O)c2cccnc2)cc1 | -3.01% |
| CCOCCCNS(=O)(=O)c1cc(-c2onc(C)c2C)ccc1OC | -5.09% |
| Cc1[nH]nc(NC(=O)CCCC(=O)c2ccccc2)c1Br | -6.91% |
| COC(=O)/C(C#N)=C/c1ccc(Cl)cc1 | -2.87% |
| O=C(Nc1cccc(Cl)c1)N1CCN(Cc2ccccc2)CC1 | -7.32% |
| O=S(=O)(c1ccc(-c2csc(Nc3ccc(F)cc3)n2)cc1)N1CCCCC1 | -4.08% |
| CCc1nn2c(=O)c(S(=O)(=O)N3CCN(C(=O)c4ccco4)CC3)c(C)nc2s1 | 2.5% |
| COc1cc2nc(N3CCN(C4CCCCC4)CC3)n3nc(-c4ccccc4)nc3c2cc1OC | 2.6% |
| CC1CCC2(NC1)OC1CC3C4CC=C5CC(O)CCC5(C)C4CCC3C1(C)[C@@H]2C (some centres unmarked) | -3.13% |
